From the antibiotic and cytotoxicity screens of Wong et al. (2023)
The other results are listed elsewhere or left out.

How the values were obtained:
HSkMC = human skeletal muscle cells; test: cytotoxicity call (relative viability < 0.9); details: 10 µM
HepG2 = test: cytotoxicity call (relative viability < 0.9); details: 10 µM
S. aureus RN4220 = test: growth inhibition call (relative growth <= 0.2); details: 50 µM

Structure (SMILES) | cytotoxicity call (HSkMC) | cytotoxicity call (HepG2) | growth inhibition call (S. aureus RN4220)
C[C@@H]1CN([C@H](C)CO)C(=O)c2cc(NC(=O)Nc3ccc(C(F)(F)F)cc3)ccc2O[C@H]1CN(C)Cc1ccc2c(c1)OCO2 | inactive | inactive | inactive
C[C@H]1CN([C@@H](C)CO)S(=O)(=O)c2ccc(C#CC3(O)CCCC3)cc2O[C@H]1CN(C)C(=O)Cc1ccncc1 | inactive | inactive | inactive
C[C@H](CO)N1C[C@H](C)[C@H](CN(C)CC2CCCCC2)Oc2c(NC(=O)Nc3ccc(C(F)(F)F)cc3)cccc2C1=O | inactive | inactive | inactive
Cc1noc(C)c1NC(=O)N(C)C[C@H]1Oc2ccc(NS(=O)(=O)c3cn(C)cn3)cc2CC(=O)N([C@H](C)CO)C[C@H]1C | inactive | inactive | inactive
C[C@H](CO)N1C[C@H](C)[C@@H](CN(C)Cc2ccc(Oc3ccccc3)cc2)Oc2ccc(NC(=O)C3CC3)cc2C1=O | inactive | inactive | inactive
C[C@@H]1CN([C@H](C)CO)C(=O)Cc2cc(NC(=O)c3ccncc3)ccc2O[C@H]1CN(C)S(=O)(=O)c1ccccc1 | inactive | inactive | inactive
C[C@@H]1CCCCO[C@@H](CN(C)Cc2ccc(Cl)c(Cl)c2)[C@@H](C)CN([C@@H](C)CO)C(=O)c2cc(NC(=O)C3CCCCC3)ccc2O1 | inactive | inactive | inactive
COc1ccc(NC(=O)N(C)C[C@H]2Oc3ccc(NC(=O)Nc4cccc5ccccc45)cc3CC(=O)N([C@@H](C)CO)C[C@H]2C)cc1 | inactive | inactive | inactive
CC1CC2C(C(O)CC3(C)C2CCC3(O)C(=O)CO)C2(C)C=CC(=O)C=C12 (centres undefined) | inactive | inactive | inactive
C[C@@H]1CN([C@H](C)CO)S(=O)(=O)c2ccc(-c3ccc(C(=O)N(C)C)cc3)cc2O[C@H]1CN(C)C(=O)C1CCOCC1 | inactive | inactive | inactive
Cc1ccccc1S(=O)(=O)N1C[C@@H](O)COC[C@H]2O[C@@H](CC(=O)N3CCN(C)CC3)CC[C@@H]21 | inactive | inactive | inactive
C[C@H]1CCCCO[C@H](CN(C)S(=O)(=O)c2ccc(Cl)cc2)[C@@H](C)CN([C@@H](C)CO)C(=O)c2cc(NC(=O)Nc3cccc4ccccc34)ccc2O1 | inactive | inactive | inactive
COCC#Cc1ccc2c(c1)O[C@H](CN(C)Cc1ccc3c(c1)OCO3)[C@H](C)CN([C@@H](C)CO)S2(=O)=O | inactive | inactive | inactive
CCCNC(=O)N(C)C[C@@H]1Oc2cc(C#Cc3ccccn3)ccc2S(=O)(=O)N([C@@H](C)CO)C[C@@H]1C | inactive | inactive | inactive
CO[C@H]1CN(C)C(=O)c2ccc(NC(=O)Nc3ccc(Cl)cc3)cc2OC[C@@H](C)N(C(=O)Nc2c(C)noc2C)C[C@H]1C | inactive | inactive | inactive
C[C@H](CO)N1C[C@H](C)[C@H](CN(C)C(=O)Cc2cccnc2)Oc2cc(C#CC3(O)CCCC3)ccc2S1(=O)=O | inactive | inactive | inactive
CCOC(=O)[N-]c1c[n+](N2CCOCC2)no1 | inactive | inactive | inactive
CNC(=C[N+](=O)[O-])NCCSCc1csc(CN(C)C)n1 | inactive | inactive | inactive
CN1C(C(=O)Nc2ccccn2)=C(O)c2sccc2S1(=O)=O | inactive | inactive | inactive
COc1ccc(S(=O)(=O)Nc2cccc3c2O[C@@H](CN(C)Cc2ccc(-c4ccccc4)cc2)[C@@H](C)CN([C@H](C)CO)C3=O)cc1 | inactive | inactive | inactive
Cc1ccc(S(=O)(=O)N(C)C[C@@H]2Oc3ccc(NS(=O)(=O)c4cccs4)cc3C(=O)N([C@H](C)CO)C[C@H]2C)cc1 | inactive | inactive | inactive
COC(=O)C[C@@H]1CC[C@H]2[C@@H](COC[C@H](O)CN2S(=O)(=O)c2cn(C)cn2)O1 | inactive | inactive | inactive
COC(=O)[C@@H](Cc1ccccc1)N[C@H](/C=C/C1CC1)[C@@H](O)CCn1cc(-c2ccc(C(=O)NO)cc2)nn1 | inactive | active | inactive
O=S(=O)(NCC[C@H]1CC[C@@H](NS(=O)(=O)c2cccc(Cl)c2)[C@H](CO)O1)c1cccc(F)c1 | inactive | inactive | inactive
COc1ccc(NC(=O)N(C)C[C@H]2Oc3ncc(C#C[C@@H](C)O)cc3C(=O)N([C@H](C)CO)C[C@H]2C)cc1 | inactive | inactive | inactive
C[C@H](CO)N1C[C@H](C)[C@@H](CN(C)Cc2ccc(C(=O)Nc3ccccc3N)cc2)Oc2c(NC(=O)Nc3ccc4c(c3)OCO4)cccc2C1=O | inactive | inactive | inactive
C[C@@H]1CN([C@H](C)CO)C(=O)c2cccc(NS(C)(=O)=O)c2O[C@H]1CN(C)C(=O)NC1CCCCC1 | inactive | inactive | inactive
C[C@H](CO)N1C[C@H](C)[C@H](CN(C)C(=O)Cc2cccnc2)Oc2ncc(C#CCc3ccccc3)cc2C1=O | inactive | inactive | inactive
